About 1,900 (1.5%) of roughly 130,000 compounds were called active. Inconclusive means that the source gave no clear call. Such entries were picked first, then a sample of the others. Calls come from the whole dose curve; as a rule, active = well fitted cell-killing curve with a large enough effect; inconclusive = small, poorly fitted or top-dose-only effect; inactive = no such curve, though single readings can be large or run the other way. Potencies beside an inconclusive call are fits to weak or partial responses and may not hold up.
test: qHTS Screen for Compounds that Selectively Target Cancer Cells with p53 Mutations: Cytotoxicity of p53ts Cells at the Nonpermissive Temperature; settings: H1299-p53A138V viability at 39C, ATP luminescence, 24 h; activity change, negative = cell killing: at 46.1 µM (top of the series); note: nearly all actives have a fitted effect of over 55% in size
% is set by controls: 0 for no effect and ±100 for the full control effect; potency is the fitted concentration of half-maximal effect; tags give direction and shape of the fitted curve.

SMILES	Potency	activity change, negative = cell killing
COc1ccc2cc(CCNC(=O)C(C)C)c(=O)[nH]c2c1	inconclusive: 25.1 µM [cytotoxic, single point]	–
O=C(CSc1nc(O)cc(=O)[nH]1)C1CC1	–	inactive: 6.71%
COc1cc(OC)c(NC(=O)CN(C)S(=O)(=O)c2ccc3c(c2)CCCC(=O)N3)cc1Cl	–	inactive: -5.68%
CN1CCc2nc(N)nc(-c3nc(N)nc4c3CN(C)CC4)c2C1	–	inactive: 0.143% [at 9.22 µM]
CSc1ccc(/C=C/c2nc3ccccc3n2S(=O)(=O)c2ccc(F)c(C)c2)cc1	active: 3.98 µM	–
CCNc1nc(NC(C)C)nc(N(C#N)Cc2ccccc2)n1	inconclusive: 20 µM [cytotoxic, single point]	–
Cc1ccc(CNC(=O)c2cc(Sc3ccc(F)cc3F)nc3ccccc23)cc1	inconclusive: 12.6 µM [cytotoxic, partial curve]	–
CCC(C(=O)N(C)Cc1ccccc1)n1nc(C)c2sc3ccccc3c2c1=O (stereo not given)	inconclusive: 7.94 µM [cytotoxic, full curve, poor fit]	–
CC(=O)c1c(C)[nH]c(C(=O)Nc2ccc(C)cn2)c1C	active: 5.01 µM	–
CN(C)c1ccc(-c2noc(-c3ccccc3O)n2)cc1	inconclusive: 3.16 µM [cytotoxic, full curve, poor fit]	–
Cc1ccc(Nc2nc3nonc3[nH]c2=O)cc1C	active: 10 µM	–
CCOc1cc(CNCCSc2nnnn2C)cc(Cl)c1OCc1ccc(Cl)cc1	inconclusive: 12.6 µM [cytotoxic, partial curve]	–
COc1ccc(-c2cc(C(=O)NCCc3ccccc3)c3c(-c4ccccc4)[nH]nc3n2)cc1	active: 12.6 µM	–
CCc1nn(CC(=O)NCCCN2CCN(C)CC2)c(=O)c2cc3occc3n12	inconclusive: 15.8 µM [cytotoxic, single point]	–
COc1ccc(C(=O)c2c(N)c(-c3nc(-c4ccccc4)cs3)c3ccccn23)cc1	–	inactive: -19.3%
Cc1ccc(/C=C/c2nc3ccccc3n2S(=O)(=O)c2ccc(Br)cc2)cc1	active: 6.31 µM	–
Cc1sc2ncnc(Sc3nnnn3-c3ccccc3)c2c1C	–	inactive: -18.7%
COc1cccc(N=C2SC(C(=O)Nc3cccc(Cl)c3)CC(=O)N2C)c1 (stereo not given)	inconclusive: 12.6 µM [cytotoxic, single point]	–
Fc1ccc(Cc2cn3cc(-c4ccc(F)cc4)nc3s2)cc1	active: 7.94 µM	–
Cc1ccc(-n2nc(C)c3c(C)c(CCC(=O)NCc4ccccc4Cl)c(C)nc32)cc1	inconclusive: 31.6 µM [cytotoxic, single point]	–
CCCc1nc(SCC(=O)N2CCCc3ccccc32)c2c(=O)n(C)c(=O)n(C)c2n1	inconclusive: 31.6 µM [cytotoxic, single point]	–
O=S(=O)(Nc1cccc(-c2ccc(N3CCCCC3)nn2)c1)c1ccc(F)cc1F	inconclusive: 7.94 µM [cytotoxic, partial curve]	–
Cc1ccc(-n2nc(CO)c(C(=O)NC(C)c3ccccc3)n2)cc1C (stereo not given)	–	inactive: -9.99%

SMILES	Potency	activity change, negative = cell killing
COC(=O)c1sc2ccccc2c1S(=O)(=O)N1CCN(c2ccc(C(C)=O)cc2)CC1	inconclusive: 0.005 µM [cytotoxic, full curve, poor fit]	–
Cc1ccc(CCNC(=O)c2ccc(CSc3nc4ccncc4n3Cc3ccc(F)cc3)cc2)cc1	inconclusive: 0.005 µM [cytotoxic, full curve, poor fit]	–
CCCCCCc1c(O)c2ccccc2[nH]c1=O	–	inactive: -2.09%
O=c1cc(-c2ccccc2)[nH]n1-c1nc2ccccc2s1	inconclusive: 25.1 µM [cytotoxic, single point]	–
COCC(C)Nc1ncnc2c1cnn2-c1cccc(Cl)c1 (stereo not given)	inconclusive: 31.6 µM [cytotoxic, single point]	–
CCOC(=O)Cc1nnc(NC(=O)C(CC)Sc2nnc3c4ccccc4n(C)c3n2)s1 (stereo not given)	–	inactive: 8.8%
COc1ccc(NC(=O)c2ccc3oc(=O)c(S(=O)(=O)c4ccc(F)cc4)cc3c2)c(OC)c1	inconclusive: 25.1 µM [cytotoxic, single point]	–
Cc1cnc(NC(=O)c2ccc(-c3nc4ccccc4s3)o2)s1	inconclusive: 31.6 µM [cytotoxic, single point]	–
CCc1nnc(NC(=O)c2ccc(OC)cc2OC)s1	inconclusive: 10 µM [cytotoxic, partial curve]	–
COc1ccccc1CNC(=O)C(=O)NCC(c1cccnc1)N1CCN(c2ccc(F)cc2)CC1 (stereo not given)	inconclusive: 31.6 µM [cytotoxic, single point]	–
O=C(CN(c1cccc(C(F)(F)F)c1)S(=O)(=O)c1ccccc1)Nc1cccc(Cl)c1	inconclusive: 25.1 µM [cytotoxic, partial curve, poor fit]	–
Cc1ccc2cc(/C=N/Nc3nc4ccccc4[nH]3)c(Cl)nc2c1	active: 3.55 µM	–
COc1cc(-c2cc(=O)c3ccccc3o2)ccc1O	–	inactive: -18.3%
COc1ccc(Cl)cc1NC(=O)Cn1nnc(C(=O)NCc2cccs2)c1N	inconclusive: 15.8 µM [cytotoxic, single point]	–
COc1cccc(-c2cc(C(=O)N3CCN(c4ncccn4)CC3)c3ccccc3n2)c1	inconclusive: 10 µM [cytotoxic, partial curve]	–
Cc1cccc2cc(C#N)c(SCCN3CCCCC3)nc12	inconclusive: 12.6 µM [cytotoxic, single point]	–
COC(=O)c1c(-c2cccs2)csc1NC(=O)COc1ccccc1	inconclusive: 15.8 µM [cytotoxic, single point]	–
COC(=O)N1CCC[C@@]2(CCN(c3ccccn3)C2)C1	–	inactive: -11%
O=C(Oc1ccc(-c2nc(-c3ccccn3)no2)cc1)c1ccccc1	inconclusive: 2.51 µM [cytotoxic, full curve]	–
Clc1ccc(OCc2nc(-c3ccccn3)n[nH]2)cc1	inconclusive: 0.158 µM [cytotoxic, partial curve, poor fit]	–
O=C(CSc1nnnn1Cc1ccccc1)Nc1ccc2c(c1)OCO2	–	inactive: -4.37%
Cc1cc(C)cc(NC(=S)N=Nc2c(O)n(C)c3ccc(S(=O)(=O)N4CCOCC4)cc23)c1	inconclusive: 10 µM [cytotoxic, partial curve, poor fit]	–

Reference: PubChem BioAssay AID902 (National Center for Advancing Translational Sciences (NCATS), 2007)
